We go through 57 sequences from the supplement of paper PMC11417369.

The other results are listed elsewhere or left out.

The assay concerns PfSIP2 AP2 domain 1 (GST-tagged). The assay is described as follows: gcPBM binding intensity (ln(normalized median fluorescence intensity)); higher = stronger DNA binding. In short, it runs like this:
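The highest Masliner-normalised natural-log median intensity across replicate spots of either probe orientation is reported as binding intensity. GST-tagged P. falciparum DNA-binding domains expressed in E. coli were applied for 1 h to an Agilent 4 × 180k array of primer-extended double-stranded 36-bp intergenic genomic probes plus negative controls, and bound protein was detected with Alexa488 anti-GST antibody and scanned at 488 nm.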
Regarding “GTAAATATATAAACATGTACATATATAAATATATAA [XGTACX_site7262]”, the “gcPBM binding intensity (ln)” value stood at 7.17.

Take “ATATTTTGGGGACTTTTTAAAAAAGAAGTATTAAAA [CACACA_negctrl_site1228]”: the “gcPBM binding intensity (ln)” value was found to be 7.21.

Turning to “CAAAAAAAATAAAACACACACACAAAAAAATAAAAA [CACACA_site466]”, the “gcPBM binding intensity (ln)” value came to 6.88.

On to “TATAAGAATAAAAAGGGTACATAAAATAATAATATA [XGTACX_site2355]”, for which the “gcPBM binding intensity (ln)” value stood at 7.13.

For the sequence “GTTTACATAGATAACTGTACGCAATGATATTAGACA [XGTACX_site1320]”, the “gcPBM binding intensity (ln)” value was 7.05.

Turning to “ATATTTCTGTGTGGATGTACATTATTAGCAGGCTTT [XGTACX_site6496]”, the “gcPBM binding intensity (ln)” value was determined as 7.24.

With “AAAATATATACACAAACATGCATATAATAAATAAAT [TGCATGCA_site711]”, the “gcPBM binding intensity (ln)” value came to 6.94.

On to “TTCTTTTTATTTATATTTTCCCCTCTCTATAGCTAT [XGTACX_negctrl_site102]”, for which the “gcPBM binding intensity (ln)” value is 7.15.

With “CAAAATAATAATAAAAGTACTAACATATTTATGAAA [XGTACX_site6078]”, the “gcPBM binding intensity (ln)” value was determined as 6.94.

Regarding “ATAATTCAAAAAAACACACAAATTACAAAATAAACT [CACACA_site6264]”, the “gcPBM binding intensity (ln)” value was 7.06.

On to “TACAAACACCCATATACACACAAAAAAAAAATAAAA [CACACA_site5421]”, for which the “gcPBM binding intensity (ln)” value came out at 7.05.

In the case of “AGAAAAACTTATATGATACACACGATAAACAAAATA [CACACA_site1038]”, the “gcPBM binding intensity (ln)” value is 6.95.

With “TATATAATATATATATGTACATATATATATGTTTTT [XGTACX_site3347]”, the “gcPBM binding intensity (ln)” value turned out to be 7.06.

As for “TATACATAAAACAGTTCACACATTGTATGAATATAT [CACACA_site4751]”, the “gcPBM binding intensity (ln)” value is 7.05.

As for “GGACAACAAACAAACACACACAAAAAAAAAATAAAA [CACACA_site3791]”, the “gcPBM binding intensity (ln)” value was 7.13.

Consider “TTGTTTCTTTTTTTTTGTACATATATATTGTATATT [XGTACX_site7602]”, for which the “gcPBM binding intensity (ln)” value was 7.25.

In the case of “AATTTTTCAAATTAATGTACTTGTTATAAATTGTAA [XGTACX_site5428]”, the “gcPBM binding intensity (ln)” value came to 6.92.

Turning to “TACGTATTTTAATATTTACACACTTATTTTTTATAT [CACACA_site7924]”, the “gcPBM binding intensity (ln)” value was 7.07.

For the sequence “GGCAATACATAATAATGTACATAATTATATAATATT [XGTACX_site3739]”, the “gcPBM binding intensity (ln)” value is 7.01.

Regarding “TATATCTGTTTATATTGTACACATATATATATATAT [XGTACX_site714]”, the “gcPBM binding intensity (ln)” value turned out to be 9.28.

For the sequence “TAAATATATTAATACACACACGATATGTACAAAAAA [CACACA_site540]”, the “gcPBM binding intensity (ln)” value came to 7.

With “TATATATATATATAATGTACATATAATATATTTATT [XGTACX_site7892]”, the “gcPBM binding intensity (ln)” value stood at 9.04.

On to “TGCATATACGCAAGCACACATATATATATATATATA [CACACA_site1069]”, for which the “gcPBM binding intensity (ln)” value stood at 9.42.

With “TTTTGATTTCCTATTGCACACTTTTTTTAAGTTTAT [CACACA_site1056]”, the “gcPBM binding intensity (ln)” value amounted to 7.21.

As to “GCTTAATGTCATATATCACACATGAAAATATATATA [CACACA_site5089]”, the “gcPBM binding intensity (ln)” value was determined as 7.24.

Take “ATTAATTTTAATAAAGGTACACGTAGTTTTTTATTA [XGTACX_site7868]”: the “gcPBM binding intensity (ln)” value amounted to 6.91.

Turning to “TTAAAATTAAAAATGCGTACACATATACATAAAAAA [XGTACX_site1915]”, the “gcPBM binding intensity (ln)” value amounted to 7.22.

As to “AACAAAACCTTATATGTACACACATATACATCACAC [CACACA_site9037]”, the “gcPBM binding intensity (ln)” value worked out at 7.44.

As to “TATATATATATATATTGTACTGAACGTTTTTTTTTG [XGTACX_site8060]”, the “gcPBM binding intensity (ln)” value worked out at 9.25.

On to “ACAGCTACCAGATACTGTACTTTTCTCCAGACTGCA [XGTACX_site2541]”, for which the “gcPBM binding intensity (ln)” value is 6.68.

“AATTTATAATTATAGAGTACATATTTTTAATATATA [XGTACX_site2566]”: the “gcPBM binding intensity (ln)” value amounted to 6.84.

Turning to “ATATACACTTAATTTTTTATAAAAAAAAATTTATAT [CACACA_negctrl_site498]”, the “gcPBM binding intensity (ln)” value is 7.06.

Regarding “GTAATAATTTTTTGTAGTACACAAAAATTCATATTT [XGTACX_site2699]”, the “gcPBM binding intensity (ln)” value was found to be 7.15.

For the sequence “ATGTGATATAAGTACACACACATATGTATTTATAAC [CACACA_site6942]”, the “gcPBM binding intensity (ln)” value worked out at 7.1.

Consider “TATATTTTGTTCTTTCCACACACAAATACATATATT [CACACA_site9348]”, for which the “gcPBM binding intensity (ln)” value was found to be 7.13.

As for “ATATACATAATCTTCTTGCACTTTTTTTTTTTTTTT [GTGCAC_site9410]”, the “gcPBM binding intensity (ln)” value was 8.96.

“AGGATTAAAAAAACATGTACGTATTTAAATATATTT [XGTACX_site8774]”: the “gcPBM binding intensity (ln)” value came out at 7.1.

Take “TACTGGTATCGATATAGTACATATAATATTATGTTA [XGTACX_site7490]”: the “gcPBM binding intensity (ln)” value amounted to 7.03.

For “AATTGAATAAATTAAACATGCACAGATGTTCTATTT [TGCATGCA_site692]”, the “gcPBM binding intensity (ln)” value was 6.89.

As to “GTATAAAAAAATAAAAGTACAAAAAAAAAAGACTGA [XGTACX_site186]”, the “gcPBM binding intensity (ln)” value amounted to 7.18.

Turning to “AAATAAAAAATATGAACACACATATATAACAAAATA [CACACA_site261]”, the “gcPBM binding intensity (ln)” value was 7.14.

For “TTTTTTTTTTTTTTTTTTTTTTTTTTTTTTTTTTTT [CACACA_negctrl_site104]”, the “gcPBM binding intensity (ln)” value is 9.09.

As to “ATATAAATAAAATATACACACATAAATATAACGACA [CACACA_site1637]”, the “gcPBM binding intensity (ln)” value stood at 7.12.

Turning to “ACGAAGATTTATCTTGCACACGCAAAAAAAAAAAAA [CACACA_site7933]”, the “gcPBM binding intensity (ln)” value was 7.06.

For “AACATTTCCTTTCTGTGTACATATAAACCCATCTAT [XGTACX_site2071]”, the “gcPBM binding intensity (ln)” value worked out at 7.29.

Regarding “ATTATATTTTGTAAATGTACATTTATATATTTTGTA [XGTACX_site1226]”, the “gcPBM binding intensity (ln)” value was found to be 6.95.

For “AAAAAAAAAAAAAAAGCATGCACATATTATTTTTTT [TGCATGCA_site416]”, the “gcPBM binding intensity (ln)” value came to 7.52.

As to “ATTCATAAACGTGTGTTAATATGAATTTAAACATAA [XGTACX_negctrl_site213]”, the “gcPBM binding intensity (ln)” value was determined as 6.79.

Consider “TTAATAATTAATTATAGTACACATTTATATTAATAA [XGTACX_site190]”, for which the “gcPBM binding intensity (ln)” value was found to be 7.03.

For “TTATTTAAAAAATTTTTAAATATACAAAAAAAAAAA [TGCATGCA_negctrl_site464]”, the “gcPBM binding intensity (ln)” value was 6.88.

Take “ATTATAAGAAGGGGGGGTACATAAATATAAATGTAT [XGTACX_site5624]”: the “gcPBM binding intensity (ln)” value was determined as 9.13.

Consider “TTTAATTTTCGGTGTGCACACAACTATGAGTTTTTA [CACACA_site3034]”, for which the “gcPBM binding intensity (ln)” value was 8.63.

“TTTAAAAAAAAAAATACACACATAAAAATTTTCAAA [CACACA_site703]”: the “gcPBM binding intensity (ln)” value worked out at 6.8.

Consider “TTCAAGCCCTTCTGCTTACACACAGTAATTATTGTG [CACACA_site2952]”, for which the “gcPBM binding intensity (ln)” value came to 6.7.

On to TATTTTTATTATATGGTGCATATATACATACATATA, for which the “gcPBM binding intensity (ln)” value worked out at 10.4.

“AAGTGCATATTATTCACACATAATAATTGTATACCT [CACACA_site5965]”: the “gcPBM binding intensity (ln)” value is 8.63.

For “AAAAAAAAAAAACACACACACAATAGTATATAAATC [CACACA_site956]”, the “gcPBM binding intensity (ln)” value was found to be 6.92.
